Assay results taken from a collection of fitness landscapes (doi:10.1016/j.celrep.2020.107928).
In all, about 81,000 sequences were measured (“one-hybrid fitness for binding parS DNA”: median about -0.17, highest 2% from about 0.51 on). The list shows a part of the results.

B1: Caulobacter ParB omega fusion; a variant is named by its letters at X, in order, B8GW30 (parent)
chain: MESVVVGEPGMSEGRRGLGRGLSALLGEVDAAPAQAPGEQLGGSREAPIEILQRNPDQPRRTFREEDLEDLSNSIREKGVLQPILVRPSPDTAGEYQIVAGERAWRAAQRAGLKTVPIMVRELDDLAVLEIGIIENVQRADLNVLEEALSYKVLMEKFERTQENIAQTIGKSXSHVANXMRLLXLPDEVQSYLVSGELTAXHARAIAAAADPVALAKQIIEGGLSVRETEALARKAPNLSAGKSKGGRPPRVKDTDTQALESDLSSVLGLDVSIDHRGSTGTLTITYATLEQLDDLCNRLTRGI

Variants of: B1
Assay: one-hybrid fitness for binding parS DNA (scaled: cognate 1, non-cognate 0); higher = stronger binding
Conditions: with parS DNA site
Outline: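 Values were rescaled so that cognate is 1 and non-cognate is 0. Each is a fitness, the log change in a variant's read ratio to wild type from Illumina reads of plasmids before and after selection, with three replicate libraries pooled and variants under 10 reads dropped. Selection of the Caulobacter ParB libraries, four specificity codons randomised, used E. coli USO with a HIS3 reporter, site 19 bp from the promoter, on M9-minus-histidine with 0.1 mM IPTG and 5 mM 3-AT for 48 hours at 37°C.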

Variant	one-hybrid fitness for binding parS DNA
DRRT	≤ 0.2
EPRM	≤ 0.2
YRCS	0.245
TDTR	≤ 0.2
DESL	≤ 0.2
RWTK	≤ 0.2
DEPV	≤ 0.2
MRKV	≤ 0.2
NGKK	≤ 0.2
QFTG	≤ 0.2
ESIS	≤ 0.2
IRNV	≤ 0.2
YSQQ	≤ 0.2
GAVI	≤ 0.2
CVPI	≤ 0.2
KSLN	≤ 0.2
TPIC	≤ 0.2
LQRL	≤ 0.2
LQHG	≤ 0.2
NDHG	≤ 0.2
RLSF	0.246
STCT	≤ 0.2
RYAF	0.208
CGSK	≤ 0.2
DGKS	≤ 0.2
VEVS	≤ 0.2

Variant	one-hybrid fitness for binding parS DNA
TLQL	≤ 0.2
MQNW	≤ 0.2
QQDG	≤ 0.2
NFVA	≤ 0.2
LTSC	≤ 0.2
KYSS	≤ 0.2
SAKC	≤ 0.2
RGFT	0.455
PNKW	≤ 0.2
SVYS	≤ 0.2
LEMF	≤ 0.2
ASFL	≤ 0.2
LDDD	≤ 0.2
TPPY	≤ 0.2
GYPY	≤ 0.2
VNPV	≤ 0.2
IMST	≤ 0.2
FSFV	≤ 0.2
VLNT	≤ 0.2
MGLW	≤ 0.2
GLQD	≤ 0.2
GAKV	≤ 0.2
TWIR	≤ 0.2
KCLV	≤ 0.2
RSMK	≤ 0.2
DGHC	≤ 0.2

Variant	one-hybrid fitness for binding parS DNA
SRDT	≤ 0.2
QGFT	≤ 0.2
GFNS	≤ 0.2
RYDE	≤ 0.2
AVYS	≤ 0.2
SIVG	≤ 0.2
EMYL	≤ 0.2
ANNG	≤ 0.2
RDAF	≤ 0.2
QDWV	≤ 0.2
PIYR	≤ 0.2
QFTQ	≤ 0.2
MITP	≤ 0.2
IYHT	≤ 0.2
EEQR	≤ 0.2
KVNY	≤ 0.2
NRVQ	≤ 0.2
QIDH	≤ 0.2
NGRL	≤ 0.2
QYVG	≤ 0.2
DTTY	≤ 0.2
NVAS	≤ 0.2
HYHS	≤ 0.2
HHWC	≤ 0.2
